Source: PubChem BioAssay AID624417 (National Center for Advancing Translational Sciences (NCATS), 2012)
“And” between values parts separate entries of the source, which are not always exact repeats. Equal values may be shown once. Hit rate of the full screen: of about 410,000 compounds, about 6,400 (1.6%) were called active. The shares of active, inactive and inconclusive entries below differ from those in the screen. Calls follow the shape of the dose curve; as a rule, active = well fitted inhibition curve with a large enough effect; inconclusive = small, poorly fitted or top-dose-only effect; inactive = no such curve, though single readings can be large or run the other way. Where the call is inconclusive, the potency comes from a doubtful curve fit.

Target: Glucagon-like peptide 1 receptor (Homo sapiens) (UniProt P43220)
UniProt P43220, sequence (P43220 whole entry, looked up): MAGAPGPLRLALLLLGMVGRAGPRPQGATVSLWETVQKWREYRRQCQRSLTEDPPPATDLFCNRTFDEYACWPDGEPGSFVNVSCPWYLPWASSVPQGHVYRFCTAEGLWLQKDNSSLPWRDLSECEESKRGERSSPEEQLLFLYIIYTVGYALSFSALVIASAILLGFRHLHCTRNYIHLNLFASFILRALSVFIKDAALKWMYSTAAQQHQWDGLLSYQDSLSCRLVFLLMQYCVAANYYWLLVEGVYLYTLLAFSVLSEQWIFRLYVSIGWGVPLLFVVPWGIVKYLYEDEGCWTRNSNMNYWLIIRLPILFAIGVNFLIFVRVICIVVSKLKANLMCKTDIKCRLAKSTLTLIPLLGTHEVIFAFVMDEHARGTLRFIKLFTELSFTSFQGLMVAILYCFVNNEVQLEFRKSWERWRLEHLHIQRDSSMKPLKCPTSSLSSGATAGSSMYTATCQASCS
Assay: qHTS of GLP-1 Receptor Inverse Agonists (Inhibition Mode); also: nearly all actives have a fitted effect of over 55% in size
Conditions: HEK293 GLP-1R CRE-luciferase, luminescence, 24 h, GLP-1R form is constitutively active; activity change, negative = inhibition: at 38.3 µM (top of the series) unless noted
Summary of the method: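 Inverse agonism was detected as reduced cAMP-driven luciferase luminescence after 24 h compound treatment. The cells were HEK293 clones expressing constitutively active human GLP-1R with the reporter. Reporter-only and GPR119 cell lines served as counterscreen controls.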
% is scaled to controls: 0 for no effect and ±100 for the full control effect; potency is read from the fitted curve at half-maximal effect; tags tell the direction and shape of the fitted curve.

SMILES	Potency	activity change, negative = inhibition
Brc1ccc2ncnc(Nc3ccc(N4CCOCC4)cc3)c2c1	inconclusive: 5.62 µM [inhibitor, partial curve, poor fit]	
Cc1ccc(C)c(C(O)c2ncc(-c3ccc(Cl)cc3)[nH]2)c1 (centres undefined)	inconclusive: 15.8 µM [inhibitor, single point]	
O=C(N/N=C/c1cc(Br)cc([N+](=O)[O-])c1O)c1ccc(NC(=O)c2ccc(F)cc2)cc1		inactive: 10.1%
CCN1C(=O)/C(=C\N2CCCc3ccccc32)SC1=S	inconclusive: 1.12 µM [inhibitor, full curve, poor fit]	
CC12CC(NC(=O)N1c1cccc(C(=O)N3CCN(c4ccccc4)CC3)c1)c1ccccc1O2 (centres undefined)	inconclusive: 7.08 µM [inhibitor, partial curve, poor fit]	
Cc1cc(C)cc(NC(=O)CN2CCN(C(=O)c3cccs3)CC2)c1	inconclusive: 0.708 µM [inhibitor, full curve, poor fit]	
Cc1ccc(C(CNC(=O)c2ccc(Br)o2)N2CCN(C)CC2)cc1 (centres undefined)	inconclusive: 11.2 µM [inhibitor, partial curve]	
CN(CC(=O)N1CCc2ccccc21)S(=O)(=O)c1ccc(Br)s1	inconclusive: 8.91 µM [inhibitor, partial curve, poor fit]	
O=C(c1ccc(Br)cc1)N1CCCc2ccccc21	inconclusive: 28.2 µM [inhibitor, single point]	
O=C(Nc1ccccc1Oc1ccccc1)C1CC1	inconclusive: 11.2 µM [inhibitor, single point]	
Cc1noc(C)c1COc1cccc(C(=O)N2CCc3ccccc32)c1	inconclusive: 12.6 µM [inhibitor, single point]	
N#Cc1c(/N=C/N2CCOCC2)sc2c1CCCCC2	inconclusive: 28.2 µM [inhibitor, single point]	
CC(NC(=S)Nc1ccccc1)C1COc2ccccc2O1 (centres undefined)	inconclusive: 12.6 µM [inhibitor, partial curve, poor fit]	
COc1ccc(C(C)=O)cc1CSc1nnc(-c2ccccc2O)n1-c1ccccc1		inactive: -6.5%
Cc1ccc(Cl)cc1N1CCN(S(=O)(=O)c2c(C(=O)N3CCOCC3)c(C)n(C)c2C)CC1	inconclusive: 28.2 µM [inhibitor, single point]	
CC1(C)CC[C@]2(C(=O)O)CC[C@]3(C)C(=CCC4[C@@]5(C)CC[C@H](O)C(C)(C)C5[C@H](O)C[C@]43C)[C@@H]2C1 (some centres undefined)	inconclusive: 10 µM [inhibitor, single point]	
CCCCN1C=CC(=C2N=c3cccc([N+](=O)[O-])c3=N2)C=C1	inconclusive: 28.2 µM [inhibitor, single point]	
O=S(=O)(Nc1cccc(S(=O)(=O)N2CCCC2)c1)c1ccc(F)cc1		inactive: -15.8%
Cc1cc(NC(=O)Nc2cccc(Cl)c2)no1	inconclusive: 28.2 µM [inhibitor, single point]	
CCCN(CCC)C(=O)CSc1c2c(nc3ccc(Cl)cc13)CCCC2	inconclusive: 28.2 µM [inhibitor, single point]	
Cc1ccc(NC(=O)CN2C(=O)C(c3ccc(C(C)(C)C)cc3)=NC2(C)C)cc1	inconclusive: 17.8 µM [inhibitor, partial curve, poor fit]	
CC(=O)[C@]1(O)Cc2c(O)c3c(c(O)c2[C@@H](O[C@H]2C[C@H](N)[C@H](O)[C@H](C)O2)C1)C(=O)c1ccccc1C3=O	inconclusive: 3.55 µM [inhibitor, full curve, poor fit]	

SMILES	Potency	activity change, negative = inhibition
Cc1cccc(NC(=O)CCN2CCN(C/C=C/c3ccccc3)CC2)c1	inconclusive: 10 µM [inhibitor, partial curve, poor fit]	
COCCn1c(=O)[nH]c2cc(C(=O)N3CCN(c4cccc(Cl)c4)CC3)ccc2c1=O	inconclusive: 28.2 µM [inhibitor, single point]	
COc1ccccc1N1CCN(C2CCN(S(=O)(=O)c3ccc(NC(C)=O)cc3)CC2)CC1		inactive: -13.8%
CCN(CC)S(=O)(=O)c1ccc2[nH]cc(C(=O)NCCCN3CCCCC3)c(=O)c2c1		inactive: 0.321%
COC(=O)c1sc2nc3c(cc2c1N)C(=O)CC(C)(C)C3		inactive: -0.0275%
Cc1ccccc1NS(=O)(=O)c1ccc(NS(=O)(=O)c2cccs2)cc1		inactive: -14.9%
O=c1cnc2ccccc2n1Cc1ccc(Br)cc1	inconclusive: 11.2 µM [inhibitor, single point]	
COc1ccc(-c2cc(=Nc3ccc(C)cc3)c3ccccc3o2)cc1	inconclusive: 7.94 µM [inhibitor, partial curve, poor fit]	
CCOc1ccccc1CNC(=O)CCC(=O)N1CCSc2ccccc21	inconclusive: 28.2 µM [inhibitor, single point]	
CCOC(=O)[C@]12CCC=C1N(CCC1=CCCCC1)C(=O)[C@H](CC(=O)NCCCCc1ccccc1)C2	inconclusive: 28.2 µM [inhibitor, single point]	
Cc1cccc(N2C(=O)CC(Sc3nc(-c4ccccc4)c4cc(Cl)ccc4n3)C2=O)c1 (centres undefined)		inactive: -6.91%
CCOC(=O)c1c(C)[nH]c(O)c1C=Nc1ccc(C(F)(F)F)cc1	inconclusive: 12.6 µM [inhibitor, single point]	
COc1ccccc1C1N(c2ccc(Cl)cc2)C(=O)C2CCCN21 (centres undefined)	inconclusive: 10 µM [inhibitor, partial curve, poor fit]	
Nc1nonc1-c1nc2ccccc2n1Cc1ccccc1	inconclusive: 10 µM [inhibitor, single point]	
CC(C)CN(Cc1cc(=O)oc2cc(-c3ccccc3)c(O)cc12)CC(C)C	inconclusive: 12.6 µM [inhibitor, partial curve, poor fit]	
NNc1ccc2c(C(F)(F)F)cc(C(F)(F)F)nc2n1		inactive: 26.8%
O=C(CSc1nnc(Cn2nnc3ccccc32)o1)N(Cc1ccc(Cl)cc1)c1ccccc1	inconclusive: 15.8 µM [inhibitor, partial curve, poor fit]	
Cc1cccc(CC(=O)N2CC(=O)Nc3ccc(C)cc3C2c2ccc(F)cc2)c1 (centres undefined)	inconclusive: 17.8 µM [inhibitor, single point]	
Cc1ccc(OCc2cc(C(=O)N3CCC(c4ccccc4Cl)C3)no2)cc1C (centres undefined)	inconclusive: 10 µM [inhibitor, partial curve, poor fit]	
Cc1ccc(NC(=O)NCc2cccn2C)cc1C		inactive: -13.7%
Cc1nnc(-c2ccc(Oc3ccc(Br)cc3)c([N+](=O)[O-])c2)o1	inconclusive: 2.82 µM [inhibitor, full curve, poor fit]	
CC1(C)Cc2ccccc2C(COc2ccccc2)=N1	inconclusive: 10 µM [inhibitor, partial curve]	

SMILES	Potency	activity change, negative = inhibition
COc1ccc(N(Cc2cccs2)C(=O)COc2cccc(C)c2C)cc1	inconclusive: 7.08 µM [inhibitor, partial curve, poor fit]	
O=[N+]([O-])c1cccc(N/N=C/c2cccc(O)c2O)c1	inconclusive: 2 µM [inhibitor, full curve, poor fit]	
COc1ccc(C(=O)N/C(=C\c2ccco2)C(=O)NCCCn2ccnc2)cc1		inactive: 0%
CC(=O)c1cccc(-c2ccnc3c2CC(C(=O)Nc2ccc(F)c(Cl)c2)O3)c1 (centres undefined)	inconclusive: 28.2 µM [inhibitor, single point]	
O=C(OCn1ncc(Br)c(Br)c1=O)c1ccc(F)cc1	inconclusive: 3.98 µM [inhibitor, full curve, poor fit]	
CC(=O)NC(c1ccc(F)c(F)c1)c1nc(-c2cccc(C(=O)O)c2)cs1 (centres undefined)		inactive: 32.4%
C[n+]1c2n(c3ccccc31)N=C(c1ccccc1)CS2	inconclusive: 316 nM [inhibitor, full curve, poor fit] and inconclusive: 8.91 µM [inhibitor, partial curve, poor fit]	
COc1ccc2[nH]c(C(=O)Nc3ncc(C)cc3Br)cc2c1		inactive: 11%
Cc1ccc(CNc2nc3ccc(Cl)cc3n3nnnc23)cc1		inactive: 38%
COc1ccc(-n2cc(-c3ccccc3)nc2SCC(=O)Nc2ccccc2C)cc1	inconclusive: 28.2 µM [inhibitor, single point]	
COc1cc(CNCc2ccccn2)ccc1OCc1cccc(Cl)c1	inconclusive: 11.2 µM [inhibitor, single point]	
OCc1nc2ccccc2n1CC(O)Cn1ccc2ccccc21 (centres undefined)	inconclusive: 10 µM [inhibitor, partial curve, poor fit]	
Cc1ccc(N(C)C(=O)c2ccc3c(Cl)c4c(nc3c2)CCC4)cc1C	inconclusive: 11.2 µM [inhibitor, single point]	
C=CCc1cccc(CNc2nc3ccccc3n2C(C)C)c1O	inconclusive: 11.2 µM [inhibitor, single point]	
COc1cc(OC)c(NS(=O)(=O)c2c(C(=O)N3CCCCCC3)c(C)n(C)c2C)cc1Cl		inactive: 6.77%
Cc1noc(C)c1C(=O)NC(C)c1ccc(Cl)cc1Cl (centres undefined)		inactive: 7.61%
Cc1cc(-c2ccc(C)c(S(=O)(=O)Nc3ccccn3)c2)on1		inactive: 1.56%
CCOc1ccccc1CNC(=O)C1CCN(S(=O)(=O)N2CCC(C)CC2)CC1	inconclusive: 11.2 µM [inhibitor, partial curve, poor fit]	
Cc1cc2nc(C3CCCN(C(=O)NCc4ccccc4)C3)[nH]c2cc1C (centres undefined)	inconclusive: 8.91 µM [inhibitor, partial curve, poor fit]	
CCc1nc2ccccc2n1CCC(C)C	inconclusive: 11.2 µM [inhibitor, partial curve, poor fit]	
